# By IC50 is meant the dose at which the fit gives 50% viability; fits outside the tested doses are given as limits. AUC, from the same fit, is the share of area under the viability curve across the 256-fold dose range: 1 means no effect, lower means more sensitive. For some assays here: A top dose marked as inferred comes from the curve model; the source does not state it. For some assays here: An entry number marks a drug with two screens in the source, which often give different values.
# Legend:
# Test in all cases: Viability of human cancer cell lines after 72 h of drug (GDSC screen)
# Epothilone B = compound: C/C(=C\c1csc(C)n1)[C@@H]1C[C@@H]2O[C@]2(C)CCC[C@H](C)[C@H](O)[C@@H](C)C(=O)C(C)(C)[C@@H](O)CC(=O)O1 [Epothilone B]; details: top dose 0.032 µM; top dose inferred
# Method: (§1)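 Human cancer cell lines in 384-well plates, medium with 10% serum, drug for 72 h over a 256-fold dose range (nine 2-fold or five 4-fold steps up to the top dose). Adherent lines were fixed and stained with the nucleic acid dye Syto60, suspension lines read with resazurin; signal relative to control wells, capped at 0 and 100%. One two-parameter sigmoid per drug and line, fitted in a mixed model over all curves with the slope shared within a line.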
# PHA-793887 = compound: CC(C)CC(=O)Nc1n[nH]c2c1CN(C(=O)C1CCN(C)CC1)C2(C)C [PHA-793887]; details: top dose 10.24 µM
# Method: as §1
# PLX4720 = compound: CCCS(=O)(=O)Nc1ccc(F)c(C(=O)c2c[nH]c3ncc(Cl)cc23)c1F [PLX4720]; details: top dose 10 µM
# Method: as §1
# Pyrimethamine = compound: CCc1nc(N)nc(N)c1-c1ccc(Cl)cc1 [Pyrimethamine]; details: top dose 20 µM; top dose inferred
# Method: as §1
# AZD-0530 = compound: CN1CCN(CCOc2cc(OC3CCOCC3)c3c(Nc4c(Cl)ccc5c4OCO5)ncnc3c2)CC1 [AZD-0530]; details: top dose 2 µM
# Method: as §1
# Y-39983 = compound: C[C@@H](N)c1ccc(C(=O)Nc2ccnc3[nH]ccc23)cc1 [Y-39983]; details: top dose 20 µM; top dose inferred
# Method: as §1
# TPCA-1 = compound: NC(=O)Nc1sc(-c2ccc(F)cc2)cc1C(N)=O [TPCA-1]; details: top dose 20 µM
# Method: as §1
# [1] = screen: GDSC drug entry 1371, top dose inferred
Cell Line,AUC (Epothilone B),IC50 (Epothilone B),AUC (PHA-793887),IC50 (PHA-793887),AUC (PLX4720; screen: GDSC drug entry 1036),IC50 (PLX4720; screen: GDSC drug entry 1036),AUC (PLX4720; [1]),IC50 (PLX4720; [1]),AUC (Pyrimethamine),IC50 (Pyrimethamine),AUC (AZD-0530),IC50 (AZD-0530),AUC (Y-39983),IC50 (Y-39983),AUC (TPCA-1),IC50 (TPCA-1)
"EC-GI-10 (oesophagus, adherent)",0.894,> 0.032 µM,0.989,> 10.2 µM,0.983,> 10 µM,0.936,> 10 µM,0.98,> 20 µM,0.979,> 2 µM,0.937,> 20 µM,0.92,> 20 µM
"EJM (lymphoid neoplasm, semi-adherent)",0.79,0.0118 µM,0.679,1.84 µM,0.988,> 10 µM,0.992,> 10 µM,0.988,> 20 µM,0.986,> 2 µM,0.936,> 20 µM,0.611,2.4 µM
"EKVX (lung adenocarcinoma, adherent)",0.85,> 0.032 µM,0.934,> 10.2 µM,0.957,> 10 µM,0.895,> 10 µM,0.914,> 20 µM,0.91,> 2 µM,0.911,> 20 µM,0.932,> 20 µM
"ES1 (Ewing sarcoma, adherent)",0.3,0.000552 µM,0.422,0.393 µM,0.971,> 10 µM,0.962,> 10 µM,0.803,9.77 µM,0.972,> 2 µM,0.88,> 20 µM,0.743,6.1 µM
"ES3 (Ewing sarcoma, adherent)",0.737,0.00989 µM,0.613,1.33 µM,0.954,> 10 µM,0.943,> 10 µM,0.925,> 20 µM,0.942,> 2 µM,0.914,> 20 µM,0.723,5.59 µM
"ES4 (Ewing sarcoma, adherent)",0.364,0.000794 µM,0.734,3.34 µM,0.93,> 10 µM,0.834,7.9 µM,0.65,3.47 µM,0.892,> 2 µM,0.893,> 20 µM,0.656,3.63 µM
"ES5 (Ewing sarcoma, adherent)",0.853,0.031 µM,0.745,3.63 µM,0.774,4.51 µM,0.931,> 10 µM,0.976,> 20 µM,0.982,> 2 µM,0.9,> 20 µM,0.575,2.07 µM
"ES6 (Ewing sarcoma, adherent)",0.669,0.00663 µM,0.979,> 10.2 µM,0.961,> 10 µM,0.918,> 10 µM,0.814,14.3 µM,0.954,> 2 µM,0.894,> 20 µM,0.799,12.3 µM
"ES7 (Ewing sarcoma, adherent)",0.685,0.0067 µM,0.361,0.261 µM,0.969,> 10 µM,0.941,> 10 µM,0.825,12.4 µM,0.984,> 2 µM,0.8,10 µM,0.631,2.9 µM
"ES8 (Ewing sarcoma, adherent)",0.48,0.00177 µM,0.248,0.129 µM,0.985,> 10 µM,0.978,> 10 µM,0.473,1.06 µM,0.975,> 2 µM,0.809,9.51 µM,0.579,2.02 µM
"ETK-1 (biliary tract, adherent)",0.422,0.00119 µM,0.746,3.64 µM,0.983,> 10 µM,0.94,> 10 µM,0.666,3.88 µM,0.902,> 2 µM,0.93,> 20 µM,0.903,> 20 µM
"EVSA-T (breast, adherent)",0.867,0.0223 µM,0.878,7.85 µM,0.979,> 10 µM,0.991,> 10 µM,0.991,> 20 µM,0.975,> 2 µM,0.916,> 20 µM,0.68,3.67 µM
"EW-1 (Ewing sarcoma, semi-adherent)",0.474,0.00171 µM,0.346,0.249 µM,0.977,> 10 µM,0.988,> 10 µM,0.482,1.12 µM,0.986,> 2 µM,0.937,> 20 µM,0.701,4.34 µM
"EW-3 (Ewing sarcoma, adherent)",0.946,> 0.032 µM,0.831,7.76 µM,0.98,> 10 µM,0.92,> 10 µM,0.96,> 20 µM,0.974,> 2 µM,0.953,> 20 µM,0.678,4.24 µM
"EW-11 (Ewing sarcoma, adherent)",0.865,> 0.032 µM,0.704,2.86 µM,0.967,> 10 µM,0.821,8.12 µM,0.919,> 20 µM,0.965,> 2 µM,0.981,> 20 µM,0.689,4.96 µM
"EW-13 (Ewing sarcoma, suspension)",0.464,0.00157 µM,0.708,2.66 µM,0.983,> 10 µM,0.969,> 10 µM,0.961,> 20 µM,0.98,> 2 µM,0.583,2.17 µM,0.512,1.36 µM
"EW-16 (Ewing sarcoma, adherent)",0.412,0.00114 µM,0.781,4.43 µM,0.919,> 10 µM,0.976,> 10 µM,0.844,15.2 µM,0.819,1.2 µM,0.93,> 20 µM,0.672,3.87 µM

# Reference: the supplement of paper PMC4967469
